Data published in US20250042997A1 (PHYLAXIS BIOSCIENCE, published 2025).

B1: humanized tetravalent Siglec-8 agonist antibody comprising hzG2v53, Fc SDIE (Fc fusion)
chain: EVQLLESGGGEVQPGGSLRLSCAASGSISIFSKYVVAWYRQAPGKEREWVAFIQSGGTANYAESAKGRFTISRDNAKNTVYLQMSSLRAEDTAVYYCNYINTDNEIGGPWGQGTLVTVRPGGSGGSEVQLLESGGGEVQPGGSLRLSCAASGSISIFSKYVVAWYRQAPGKEREWVAFIQSGGTANYAESAKGRFTISRDNAKNTVYLQMSSLRAEDTAVYYCNYINTDNEIGGPWGQGTLVTVRPGGGG[human IgG1 Fc with changes not shown]
notes: Homodimer through the Fc; also called cx11914; tet-hzG2v53-SDIE
B2: humanized tetravalent Siglec-8 agonist antibody comprising hzG2v52, Fc SDIE (Fc fusion)
chain: EVQLLESGGGEVQPGGSLRLSCAASGSISIFSKYVVAWYRQAPGKEREWVAFIQRGGTANYAESAKGRFTISRDNAKNTVYLQMSSLRAEDTAVYYCNYINTDNEIGGPWGQGTLVTVEPGGSGGSEVQLLESGGGEVQPGGSLRLSCAASGSISIFSKYVVAWYRQAPGKEREWVAFIQRGGTANYAESAKGRFTISRDNAKNTVYLQMSSLRAEDTAVYYCNYINTDNEIGGPWGQGTLVTVEPGGGG[human IgG1 Fc with changes not shown]
notes: Homodimer through the Fc; also called cx11913
B3: humanized tetravalent Siglec-8 agonist antibody comprising hzG2v14, Fc SDIE (Fc fusion)
chain: EVQLLESGGGEVQPGGSLRLSCAASGSISIFSMYVVAWYRQAPGKEREWVAFIQRGGTANYAESAKGRFTISRDNAKNTVYLQMSSLRAEDTAVYYCNYINTDNEIGGPWGQGTLVTVKPGGSGGSEVQLLESGGGEVQPGGSLRLSCAASGSISIFSMYVVAWYRQAPGKEREWVAFIQRGGTANYAESAKGRFTISRDNAKNTVYLQMSSLRAEDTAVYYCNYINTDNEIGGPWGQGTLVTVKPGGGG[human IgG1 Fc with changes not shown]
notes: Homodimer through the Fc; also called cx11769
B4: humanized tetravalent Siglec-8 agonist antibody comprising hzG2v51, Fc SDIE (Fc fusion)
chain: EVQLLESGGGEVQPGGSLRLSCAASGSISIFSKYVVAWYRQAPGKEREWVAFIQRGGTANYAESAKDRFTISRDNAKNTVYLQMSSLRAEDTAVYYCNYINTDNEIGGPWGQGTLVTVRPGGSGGSEVQLLESGGGEVQPGGSLRLSCAASGSISIFSKYVVAWYRQAPGKEREWVAFIQRGGTANYAESAKDRFTISRDNAKNTVYLQMSSLRAEDTAVYYCNYINTDNEIGGPWGQGTLVTVRPGGGG[human IgG1 Fc with changes not shown]
notes: Homodimer through the Fc
B5: humanized tetravalent Siglec-8 agonist antibody comprising hzG2v54, Fc SDIE (Fc fusion)
chain: QVQLLESGGGEVQPGGSLRLSCAASGSISIFSKYVVAWYRQAPGKEREWVAFIQRGGTANYAESAKGRFTISRDNAKNTVYLQMSSLRAEDTAVYYCNYINTDNEIGGPWGQGTLVTVEPGGSGGSQVQLLESGGGEVQPGGSLRLSCAASGSISIFSKYVVAWYRQAPGKEREWVAFIQRGGTANYAESAKGRFTISRDNAKNTVYLQMSSLRAEDTAVYYCNYINTDNEIGGPWGQGTLVTVEPGGGG[human IgG1 Fc with changes not shown]
notes: Homodimer through the Fc
B6: humanized tetravalent Siglec-8 agonist antibody comprising hzG2v47, Fc SDIE (Fc fusion)
chain: EVQLLESGGGEVQPGGSLRLSCAASGSISIFSDYVVAWYRQAPGKEREWVAFIQRGGTANYAESAKGRFTISRDNAKNTVYLQMSSLRAEDTAVYYCNYINTDNEIGGPWGQGTLVTVRPGGSGGSEVQLLESGGGEVQPGGSLRLSCAASGSISIFSDYVVAWYRQAPGKEREWVAFIQRGGTANYAESAKGRFTISRDNAKNTVYLQMSSLRAEDTAVYYCNYINTDNEIGGPWGQGTLVTVRPGGGG[human IgG1 Fc with changes not shown]
notes: Homodimer through the Fc
B7: humanized tetravalent Siglec-8 agonist antibody comprising hzG2v55, Fc SDIE (Fc fusion)
chain: QVQLLESGGGEVQPGGSLRLSCAASGSISIFSDYVVAWYRQAPGKEREWVAFIQRGGTANYAESAKGRFTISRDNAKNTVYLQMSSLRAEDTAVYYCNYINTDNEIGGPWGQGTLVTVRPGGSGGSQVQLLESGGGEVQPGGSLRLSCAASGSISIFSDYVVAWYRQAPGKEREWVAFIQRGGTANYAESAKGRFTISRDNAKNTVYLQMSSLRAEDTAVYYCNYINTDNEIGGPWGQGTLVTVRPGGGG[human IgG1 Fc with changes not shown]
notes: Homodimer through the Fc

The binders below were run against T1, human Siglec-8 (full-length, on transfected CHO or 293 cells, or native on human eosinophils) (human, UniProt Q9NYZ4 17-499) (assay: flow cytometry on freshly isolated human eosinophils).
T1 sequence (Q9NYZ4 17-499): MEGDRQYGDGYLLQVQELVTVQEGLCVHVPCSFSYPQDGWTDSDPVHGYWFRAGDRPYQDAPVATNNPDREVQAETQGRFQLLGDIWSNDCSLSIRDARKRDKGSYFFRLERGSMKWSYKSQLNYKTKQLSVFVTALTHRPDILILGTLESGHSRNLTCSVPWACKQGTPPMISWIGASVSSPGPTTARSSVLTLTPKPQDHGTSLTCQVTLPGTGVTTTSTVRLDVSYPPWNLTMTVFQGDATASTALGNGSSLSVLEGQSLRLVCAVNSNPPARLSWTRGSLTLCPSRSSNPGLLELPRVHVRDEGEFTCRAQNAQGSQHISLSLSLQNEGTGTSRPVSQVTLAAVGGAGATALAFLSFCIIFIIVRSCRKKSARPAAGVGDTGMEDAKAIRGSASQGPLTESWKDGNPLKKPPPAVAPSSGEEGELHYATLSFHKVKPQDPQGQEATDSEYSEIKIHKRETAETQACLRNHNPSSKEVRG
Description: The anti-Siglec8 G2 VHH sequence hzG2v14 underwent further modification to minimize binding to siglec-2 (CD22) and other siglec proteins (see, below), reduce potential immunogenicity and optimize manufacturability. Humanized tetravalent Siglec-8 agonist antibodies comprising hzG2v14 (SEQ ID NO: 9), hzG2v47 (SEQ ID NO: 12), hzG2v51 (SEQ ID NO: 17), hzG2v52 (SEQ ID NO: 22), hzG2v53 (SEQ ID NO: 27), hzG2v54 (SEQ ID NO: 32) or hzG2v55 (SEQ ID NO: 37) were linked to an engineered Fe SDIE region (described further in Example 5) via linker 2. Binding to human Siglec-8 on eosinophils was evaluated and compared to that of the afucosylated anti-Siglec-8 2E2 (2E2 Afuc) reference antibody by flow cytometry. Eosinophils were isolated from healthy donor whole blood using the StemCell EasySep™ direct human eosinophil isolation kit, diluted in FACS buffer, added at 10 k/well to a 96-well assay plate and incubated at 4° C. for 20 minutes with a titration series (10-12 point titration, 1:4 dilution) starting at 10 nM of the test articles. […] Following one additional wash in FACS buffer, bound antibodies were detected via flow cytometry (NovoCyte 3000). Median fluorescent intensity was calculated using Novoexpress onboard software gating on SSC^high/CCR3⁺ cells. […] The pI of the VHH domains as determined using ExPasy are shown in Table 3, with a higher pI generally preferred for manufacturing.

Which “fold higher affinity than the 2E2 Afuc comparator antibody” value does the source give for B1 here?
The value was ~8 fold.

With B2 as the binder, how does the “fold higher affinity than the 2E2 Afuc comparator antibody” value read?
The value was ~8 fold.

The binders below were run against T1, human Siglec-8 (full-length, on …) (assay: flow cytometry on freshly isolated human eosinophils, tetravalent Fc SDIE format).
Description: The anti-Siglec8 G2 VHH sequence hzG2v14 underwent further modification to minimize binding to siglec-2 (CD22) and other siglec proteins (see, below), reduce potential immunogenicity and optimize manufacturability. Humanized tetravalent Siglec-8 agonist antibodies comprising hzG2v14 (SEQ ID NO: 9), hzG2v47 (SEQ ID NO: 12), hzG2v51 (SEQ ID NO: 17), hzG2v52 (SEQ ID NO: 22), hzG2v53 (SEQ ID NO: 27), hzG2v54 (SEQ ID NO: 32) or hzG2v55 (SEQ ID NO: 37) were linked to an engineered Fe SDIE region (described further in Example 5) via linker 2. Binding to human Siglec-8 on eosinophils was evaluated and compared to that of the afucosylated anti-Siglec-8 2E2 (2E2 Afuc) reference antibody by flow cytometry. Eosinophils were isolated from healthy donor whole blood using the StemCell EasySep™ direct human eosinophil isolation kit, diluted in FACS buffer, added at 10 k/well to a 96-well assay plate and incubated at 4° C. for 20 minutes with a titration series (10-12 point titration, 1:4 dilution) starting at 10 nM of the test articles. Following one wash with FACS buffer, an Alexa Fluor®647 AffiniPure Donkey Anti-Human Fcγ specific secondary antibody (Jackson ImmunoResearch) was added, and cells were incubated for 20 minutes at 4° C. Following one additional wash in FACS buffer, bound antibodies were detected via flow cytometry (NovoCyte 3000). Median fluorescent intensity was calculated using Novoexpress onboard software gating on SSC^high/CCR3⁺ cells. The dissociation constant (Kd) values from these studies are summarized in Table 3 and representative binding data for the tetravalent anti-Siglec8 antibodies comprising hzG2v52 (cx11913) and hzG2v53 (cx11914) is show in FIG. 4A. The pI of the VHH domains as determined using ExPasy are shown in Table 3, with a higher pI generally preferred for manufacturing.

For B3, which Kd is on record?
Its Kd is 0.00812 nM.

With B4 as the binder, how does the Kd read?
The Kd was 0.119 nM.

Which Kd does the source give for B5 here?
Its Kd is 0.036 nM.

With B6 as the binder, how does the Kd read?
Its Kd is 0.00888 nM.

With B1 as the binder, how does the Kd read?
Its Kd is 0.013 nM.

Which Kd does the source give for B7 here?
The Kd was 0.01 nM.

For B2, which Kd is on record?
The Kd was 0.012 nM.
